# This is one part of the list.
# Tested on: HSkMC (human skeletal muscle cells)
# Experiment: cytotoxicity call (relative viability < 0.9)
# Conditions: 10 µM
row,Structure (SMILES),cytotoxicity call
1,CO[C@H]1CN(C)C(=O)c2ccc(NC(=O)NC(C)C)cc2OC[C@@H](C)N(Cc2ccc(-c3ccccn3)cc2)C[C@H]1C,inactive
2,C[C@H]1CN([C@@H](C)CO)C(=O)c2cccc(NS(=O)(=O)c3cccs3)c2O[C@@H]1CN(C)Cc1ccc(Oc2ccccc2)cc1,inactive
3,COc1ccc(S(=O)(=O)N(C)C[C@H]2Oc3ccc(NC(=O)CCN4CCOCC4)cc3CC(=O)N([C@H](C)CO)C[C@H]2C)cc1,inactive
4,C[C@@H]1CN([C@@H](C)CO)C(=O)c2cc(NC(=O)C3CCCCC3)ccc2O[C@@H](C)CCCCO[C@@H]1CN(C)C(=O)NC1CCCCC1,inactive
5,CC(=O)c1cncnc1,inactive
6,Cc1noc(C)c1S(=O)(=O)Nc1ccc2c(c1)C(=O)N([C@H](C)CO)C[C@H](C)[C@@H](CN(C)CC1CC1)O2,inactive
7,Cn1cnc(S(=O)(=O)N2C[C@@H](O)COC[C@H]3O[C@H](CC(=O)NC4CCC4)CC[C@@H]32)c1,inactive
8,C[C@H](CO)N1C[C@H](C)[C@@H](CN(C)Cc2ccc3c(c2)OCO3)OCCCC[C@H](C)Oc2ccc(NC(=O)c3ccccc3)cc2C1=O,inactive
9,Cc1noc(C)c1NC(=O)Nc1ccc2c(c1)CC(=O)N([C@@H](C)CO)C[C@@H](C)[C@@H](CN(C)Cc1ccc(C(=O)Nc3ccccc3N)cc1)O2,inactive
10,C[C@H](CO)N1C[C@H](C)[C@@H](CN(C)Cc2ccc(Cl)c(Cl)c2)Oc2ccc(NC(=O)Nc3ccc(C(F)(F)F)cc3)cc2CC1=O,active
11,C[C@@H]1CN([C@H](C)CO)S(=O)(=O)c2ccc(C#Cc3cccnc3)cc2O[C@H]1CN(C)C(=O)CN(C)C,inactive
12,COc1ccccc1C#Cc1ccc2c(c1)O[C@@H](CN(C)C(C)=O)[C@@H](C)CN([C@H](C)CO)S2(=O)=O,inactive
13,COc1ccc(NC(=O)Nc2ccc3c(c2)C(=O)N([C@H](C)CO)C[C@@H](C)[C@@H](CN(C)C(=O)Nc2cccc4ccccc24)O3)cc1,active
14,C[C@@H]1CCCCO[C@@H](CN(C)C(=O)Cc2ccccc2)[C@@H](C)CN([C@@H](C)CO)C(=O)c2cc(NC(=O)Nc3ccc4c(c3)OCO4)ccc2O1,inactive
15,CCCCC/C=C/C=C1/C(=O)C=C[C@@H]1C/C=C\CCCC(=O)O,inactive
16,C[C@@H]1CN([C@H](C)CO)C(=O)c2cc(NS(=O)(=O)c3cccs3)ccc2O[C@@H](C)CCCCO[C@@H]1CN(C)Cc1ccc(C(F)(F)F)cc1,inactive
17,C[C@@H]1CN([C@H](C)CO)C(=O)Cc2cc(NC(=O)Nc3ccc(F)cc3)ccc2O[C@H]1CN(C)S(C)(=O)=O,inactive
18,Cc1ccc(S(=O)(=O)Nc2ccc3c(c2)C(=O)N([C@H](C)CO)C[C@H](C)[C@@H](CN(C)Cc2ccncc2)OCCCC[C@H](C)O3)cc1,inactive
19,COc1ccc(S(=O)(=O)N(C)C[C@@H]2Oc3ccc(NC(=O)Nc4c(C)noc4C)cc3CC(=O)N([C@H](C)CO)C[C@@H]2C)cc1,inactive
20,C[C@@H]1CCCCO[C@H](CN(C)S(=O)(=O)c2cn(C)cn2)[C@H](C)CN([C@@H](C)CO)C(=O)c2cc(NS(C)(=O)=O)ccc2O1,inactive
21,C[C@@H]1CN([C@H](C)CO)C(=O)c2cccc(NS(=O)(=O)c3cn(C)cn3)c2O[C@H]1CN(C)Cc1ccccc1,inactive
22,C[C@H]1CN([C@@H](C)CO)C(=O)c2cc(C#Cc3cccc(F)c3)cnc2O[C@H]1CN(C)Cc1ccccn1,inactive
23,CC(C)NC(=O)N(C)C[C@@H]1Oc2ccc(NS(=O)(=O)c3cn(C)cn3)cc2CC(=O)N([C@@H](C)CO)C[C@H]1C,inactive
24,COc1ccc(NC(=O)Nc2ccc3c(c2)CC(=O)N([C@H](C)CO)C[C@H](C)[C@H](CN(C)C(=O)Nc2ccc(C(F)(F)F)cc2)O3)cc1,inactive
25,NC(=O)NCc1ccccn1,inactive
26,CCS(=O)(=O)N1C[C@]2(CN(C2)C(=O)Nc2c(noc2C)C)c2c(n(c3cc(ccc23)OC)C)[C@H]1CO,inactive
27,C[C@H]1CN([C@@H](C)CO)C(=O)Cc2cc(NS(=O)(=O)c3ccc(Cl)cc3)ccc2O[C@@H]1CN(C)S(C)(=O)=O,inactive
28,Cc1ccc(S(=O)(=O)N2C[C@@H](O)COC[C@@H]3O[C@@H](CC(=O)NCCCN(C)C)CC[C@H]32)cc1,inactive
29,COc1ccc(CNc2nc(N3CCCC3CO)ncc2C(=O)NCc2ncccn2)cc1Cl (stereo not given),inactive
30,COCC#Cc1ccc2c(c1)O[C@@H](CN(C)S(=O)(=O)c1ccc(C)cc1)[C@@H](C)CN([C@H](C)CO)S2(=O)=O,inactive

# From the antibiotic and cytotoxicity screens of Wong et al. (2023)
